Test results taken from PubChem BioAssay AID1956 (SRMLSC, 2009).
The other results are listed elsewhere or left out. The main result of the screen is listed elsewhere. These columns were measured beside it and carry no call.

assay: compounds boosting herpes simplex virus growth – fold increase, host cell viability (AID 1956); details: HSV replication augmentation in cells; fold increase: measured here: primary screen fold increase 10 uM, at 10 µM, stronger effect = higher value; viability: measured here: host cell viability series, at 25 µM, stronger effect = lower value; also: tested in PC3 cells

Compound	fold increase	viability [%]
Cc1ccc2[nH]c(=O)c(CN(Cc3cccs3)Cc3nnnn3Cc3ccccc3)cc2c1	1.38	92
N#C/C(=C/c1ccc(N2CCOCC2)o1)c1nc2ccccc2[nH]1	7.65	84.4
CCCCCCN1C=C/C(=C\C=C(C#N)C#N)c2ccccc21	2.26	87.9
O=C(N/N=C\c1c(O)ccc2ccccc12)c1ccc(Cn2cccn2)o1	1.38	–
CCN(CC)c1nc2c3c(nc4c(c3c1C#N)CC(=O)N4c1ccc(Cl)cc1)NC(C)=N2	1.38	–
Cc1ccc2[nH]c(C(=O)O)c(NC(=O)[C@@H]3C[C@@H]3c3ccccc3)c2c1	1.39	98.9
CCCCCCN1C=CC=C/C1=C\C=C(C#N)C#N	2.68	89.2
COc1ccc(Br)cc1S(=O)(=O)N1CCOCC1	1.32	107
CC(=O)CC1(C)OC(N)=C(C#N)C1(C#N)C#N (stereo unspecified)	1.38	94.9
COc1ccc(CNC(=O)CSCc2cnn(-c3ccccc3)c2-n2cccc2)cc1	1.41	103
CCOC(=O)Cc1csc(N/C(=N/S(=O)(=O)c2ccc(F)cc2F)c2ccccc2)n1	1.35	103
Cc1noc(C)c1C(=O)Nc1sc(C)c(C)c1C#N	2.28	92.6
CCOC(=O)C1=C(O)c2ccccc2C(=O)/C1=C\c1ccc(C)cc1	1.35	95.6
Cc1ccc(C(=O)CSC2=C(C#N)C(c3ccco3)C3=C(CC(C)(C)CC3=O)N2)cc1 (stereo unspecified)	1.2	–
COc1ccccc1N/C=C/c1onc(C)c1[N+](=O)[O-]	1.67	62
Cn1cccc1/C=C1\SC(=S)N(Nc2ccccc2)C1=O	1.35	96.7
O=C(Nc1cccc(-c2nnc(-c3ccco3)o2)c1)C(c1ccccc1)c1ccccc1	0.993	–
CCCCC(=O)NC(=S)NNC(=O)CC	2.2	–
CCCCOC(=O)N1CCOCCOCCOCCOCC1	1.48	94
Cc1ccc(-n2nc3cc(C)c(N)cc3n2)cc1	1.05	–

Compound	fold increase	viability [%]
Cc1ccc(SCC(=O)Nc2ccc(-c3nnc(-c4ccco4)o3)cc2)cc1	1.14	–
CC(C)=C1C(=O)NN(c2ccc(F)c(Cl)c2)C1=O	1.46	102
CC1=CC(=O)C(C(C)C)=C/C1=N\OC(=O)c1cccc2nc(C)oc12	1.4	–
Cc1cccc(C)c1NC(=O)COC(=O)c1c2c(nc3ccccc13)/C(=C\c1ccc3c(c1)OCO3)CCC2	6.57	–
O=C(CCSc1nnc2scc(-c3ccccc3)n12)NCc1ccc2c(c1)OCO2	1.32	97.3
C=CCN(CC=C)C(=O)C(=O)c1ccn(-c2c(C)csc2C(=O)OC)c1	1.35	99
CCCc1ccc(/C=C2\C(=O)c3ccccc3C(O)=C2C(=O)OCC)cc1	1.81	86.6
CC(=O)c1ccc(Nc2c3c(c(C#N)c4nc5ccccc5n24)CCC3)cc1	1.65	94.5
Cc1cccc(NC(=S)NC(=O)c2cc(-c3ccccc3)nc3ccccc23)c1	1.21	–
CN1CCN(C(=O)c2ccc(C(F)(F)F)cc2)CC1	1.33	94.5
Cc1ccc(-n2ncc3c(=O)n(CC(=O)Nc4cccc(Cl)c4)cnc32)cc1C	1.15	–
CCCCn1c(/N=C/c2ccccc2NS(=O)(=O)c2ccc(C)cc2)nc2ccccc21	1.39	89.3
CCOCCCn1cnc2c(c1=O)c1nc3ccccc3nc1n2-c1ccccc1	1.43	100
CC(C)c1ccc(/C=C2\Oc3c(ccc(O)c3CN3CCN(C)CC3)C2=O)cc1	1.37	98.2
CCn1c(=O)cc(SCC(=O)N2CCCCC2)c2ccccc21	1.41	90
COc1ccccc1NC(=O)CC1Nc2ccccc2NC1=O (stereo unspecified)	1.32	96.6
Cc1cc(C=C2C(=O)CCCC2=O)c(C)n1-c1ccccc1	1.49	104
CC(=O)Oc1ccc(Cl)cc1/C=C/c1cc(OC(C)=O)c2ccccc2n1	2.4	67.2
CN1CC=C2C(C#N)=C(N)C(C#N)(C#N)[C@H](c3ccoc3)[C@H]2C1	1.38	–
CCN1/C(=C\c2ccc3cc(C)ccc3[n+]2CC)Sc2cc(C)c(C)cc21	7.96	–

Compound	fold increase	viability [%]
O=C(O)c1ccc(/C=N/Nc2ncc(C(F)(F)F)cc2Cl)cc1	1.34	95.9
COC(=O)C1=COC(C)C2CN3CCc4c([nH]c5cc(OC)c(OC)cc45)C3CC12 (stereo unspecified)	1.72	99.1
Cc1ccc(C(=O)COC(=O)c2cccc(N3C(=O)c4c(C)nc5ccccc5c4C3=O)c2)cc1C	1.38	99
COc1ccc(/C=c2\s/c(=C/C(=O)c3ccc(C)cc3)[nH]c2=O)c(OC)c1	5.41	89.7
Cc1c(-c2ccc(/C=N/NC(=O)C(=O)Nc3ccccc3F)o2)cccc1[N+](=O)[O-]	1.48	93.3
Cc1ccc(C2=CC(c3ccc(N(C)C)cc3)n3nnnc3N2)cc1 (stereo unspecified)	1.57	92.2
O=C1C(C2=C(O)c3ccccc3C2=O)=Nc2ccccc21	2.02	27.7
COc1ccc(CN2C(=O)Cc3c2nc(N)c2c(N)nc(N4CCCCC4)c(C#N)c32)cc1	1.65	95.5
CN(c1ccccc1)c1ccc(/C=c2\s/c(=C(/C#N)C(=O)C(C)(C)C)n(Cc3ccco3)c2=O)cc1	2.62	95.4
O=C(NNC1=Nc2cccc3cccc1c23)c1ccccc1Br	3.09	–
CCCN1C(=O)S/C(=C/c2ccc(N3CCOCC3)o2)C1=O	1.65	93
CCCN1C(=O)/C(=C/C=C2\N(CC)c3ccccc3C2(C)C)SC1=S	7.51	96.4
COc1cc(OC)c(-c2c3cc(O)c(=O)cc-3oc3cc(O)c(O)cc23)cc1OC	8.96	83.9
COc1cc(/C=C2/SC(=Nc3ccc(O)cc3)NC2=O)ccc1O	3.47	40.4
Cn1c(N/N=C/c2c[nH]c3ccccc23)nc2ccccc21	1.09	–
CCOc1ccc(C2=C(C=Nc3c(C)n(C)n(-c4ccccc4)c3=O)C(c3ccc(F)cc3)c3ccccc3O2)cc1 (stereo unspecified)	1.22	–
CC(C)n1c(SCC(=O)Nc2nc3ccccc3s2)nc2c1c(=O)n(C)c(=O)n2C	1.11	–
Cn1c(SCc2ccc(C(C)(C)C)cc2)nnc1C1COc2ccccc2O1 (stereo unspecified)	1.33	96.3
NNC(=O)c1oc2nc(-c3ccccc3)cc(-c3ccco3)c2c1N	3.14	104
